# Reference: the supplement of paper PMC11417369
# ± gives the standard deviation of the averaged measurements. The list shows a part of the results.
# System: PfAP2-EXP AP2 domain (GST-tagged)
# Experiment: gcPBM binding intensity (ln(normalized median fluorescence intensity)); higher = stronger DNA binding
# Method in brief: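 DNA-binding domains from P. falciparum, fused to GST and produced in E. coli, were put on an Agilent 4 × 180k double-stranded probe array for 1 h in 1× PBS holding 1% milk, 0.2 mg/ml BSA, 0.5% salmon testes DNA and 0.03% Triton X-100. Probes were primer-extended, 36 bp long and drawn from intergenic genomic regions, with negative controls included. After Alexa488 anti-GST antibody detection and a 488 nm scan, binding intensity was set as the highest Masliner-normalised natural-log median intensity across replicate spots of either probe orientation.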
row,Sequence,gcPBM binding intensity (ln)
1,ATATAGATATATAGTAGTACTTGTTATATAAGATAA [XGTACX_site6336],8.38 ± 0.37
2,GTATATTATTTACGTTTGCACTTCATTTTATAGTAA,9.25 ± 0.37
3,TTCTTCAAAAAAAATTGTACACATCTCTCAAATGTT [XGTACX_site2952],8.6 ± 0.21
4,AATGGATGAATGAATGTATGAATGAATGTATGAATG [CACACA_negctrl_site91],8.78 ± 0.54
5,TATTAATTGTGGCACCTTGTATGTTTACAATGACAT [CACACA_negctrl_site1383],8.84 ± 0.31
6,AATATCATATAAAAATGTACAAATTCTAAAACACGA [XGTACX_site1442],8.85 ± 0.38
7,TATTTTTTATAATAATGTACATATATATATATAATA [XGTACX_site2329],8.36 ± 0.27
8,TATAGATACATATACACACACACACCCACATATATA [CACACA_site3436],8.79 ± 0.49
9,ATGTATGTGTAACATAGTACTTTTTAAAAGGATATT [XGTACX_site5328],8.71 ± 0.38
10,ATCAAACCTTTTAAATGTACATTCGGAGTAAAAAAA [XGTACX_site282],8.48 ± 0.51
11,GTATTCATGCTAAAGGTGCAATAATTTTTATAATAA [GTGCAC_site9603],8.77 ± 0.38
12,AAGATAAAATTATGTAGTACAAAAAAAAATAAAAAA [XGTACX_site139],8.52 ± 0.49
13,CGCCTATAAGCTTAGACACACAAATAAATAAATATA [CACACA_site1264],8.19 ± 0.52
14,TTAAAAATGTTGGAAAGTACATATTTTTTAAAAGTA [XGTACX_site802],8.39 ± 0.4
15,TATTGGGGGTATAAACACAGTAAGTAAATAAATAAA [CACACA_negctrl_site1680],8.91 ± 0.22
16,TACCTAATTCGGTCCCGTACAAGTTAGTTTCAATTC [XGTACX_site2703],8.49 ± 0.4
17,TAATGTACTTAAACCGCACACATATAAAAAAATAAA [CACACA_site8926],8.47 ± 0.38
18,TTATTTTAATTTTTGGTGCATATTCAAGTGTACCTT [GTGCAC_site9791],8.51 ± 0.29
19,TTTTGTAAAATTAATTTATTATACATATATATTTCT [GTGCAC_negctrl_site728],8.2 ± 0.42

row,Sequence,gcPBM binding intensity (ln)
1,TATTTACATATTTATATACACACTTTTGCGTGTCTG [CACACA_site1110],8.51 ± 0.32
2,ATAAATAATATAAATACACACTAAAAAAGATATATA [CACACA_site6397],8.64 ± 0.36
3,AAATAAAATACAATATGATAAAATGTTATCATATAT [CACACA_negctrl_site538],8.35 ± 0.38
4,AATAAAAGGAATAATTGTACATAATGATTATACGTT [XGTACX_site7548],8.51 ± 0.34
5,GTTGTAAAAAGAAAATGTACGTAATAAATATATATA [XGTACX_site3081],8.93 ± 0.38
6,AATAAAAAAAAAAATAATATATATGTATAAATATAT [CACACA_negctrl_site1561],8.25 ± 0.48
7,AATACTCCATTGTATAGTACATATATTTTTATTTAT [XGTACX_site3641],8.45 ± 0.35
8,TATTTTTATTTATATACACACTTACATATTTATATT [CACACA_site7666],8.72 ± 0.33
9,AGAATTTATAAAAACTGTACATATTTTCCAGTTATA [XGTACX_site2848],8.37 ± 0.28
10,CATATTGTCATTCTGGTGCACTTTTTTTTTTTTTTT,9.59 ± 0.43
11,ATATAATATAACAATACGCACACGTATACAAAAAAA [CACACA_site3151],8.63 ± 0.45
12,TTTTTAATTAATCTTATAAATATTTATAAATATATA [CACACA_negctrl_site1485],8.21 ± 0.45
13,ATAAAATGCGCAAACACACACAAAAAAAAGATATAT [CACACA_site6875],8.89 ± 0.49
14,AGGAAATGTTTATATACATGCATAATTAAATATAAT [TGCATGCA_site672],8.73 ± 0.34
15,ATGTAATCATTTTCGACTTTTTTTTTTTTTTTTTTT [CACACA_negctrl_site1132],8.65 ± 0.15
16,AATTTTCATTTTAGAAGTACACACAAAAAATAAAAT [XGTACX_site4426],8.74 ± 0.41
17,TTTTTTTTTTTTTTTTTTTTCTTCATTTAATTTATA [GTGCAC_negctrl_site17],8.06 ± 0.4
18,ATTATATTTCAATTATGTACATATAAAATGAATAAA [XGTACX_site4204],8.43 ± 0.38
19,TTTTTTTATTATTATTGTACAAGGCCTTAGGTGATT [XGTACX_site5050],8.55 ± 0.41

row,Sequence,gcPBM binding intensity (ln)
1,TTTTCATGTTTTTTTCTTTATTTTTTTTTTTTTTTT [GTGCAC_negctrl_site511],8.37 ± 0.64
2,TACTTAATTATAAGGACATGCACAAAAGGAATTATT [TGCATGCA_site468],9.05 ± 0.34
3,TTTACACTTTTTTTTGTACACACTAATAAGATTAAC [CACACA_site9304],8.8 ± 0.31
4,TTTTAATTAAATACAAAAAAAAAAAAAAAAAAAAAA [CACACA_negctrl_site1631],7.89 ± 0.32
5,ACATTACAATTATTATAATCAATATATAACCTCTAA [TGCATGCA_negctrl_site105],8.34 ± 0.38
6,AAAAAAATTTTTAAAAGTACATTAATATTAATATGT [XGTACX_site5177],8.77 ± 0.35
7,ATAAAATTATATACTCGTACACAAAAAAAAAAAATA [XGTACX_site6035],8.48 ± 0.52
8,AAATATATTTTTTTTTGTACTCAAAAAGAAAAAAAA [XGTACX_site8540],8.28 ± 0.34
9,AAAAATTGAATGATGTGTACTTAAAAGAATATAGAA [XGTACX_site6588],8.74 ± 0.23
10,TATATAATAACATATGCATGCAAGTAATATAACCAA [TGCATGCA_site324],9.96 ± 0.13
11,TATAATATATATGTAACACACAAAAGTTATATACTT [CACACA_site2868],8.28 ± 0.37
12,CATTAATATATATATAGTACATATACACCTTCATTA [XGTACX_site8473],8.38 ± 0.13
13,AAAAAAAATCAGACAGGTACACATTCCATGTTCAAA [XGTACX_site5380],8.37 ± 0.51
14,ATATATTATATTTAAGTGCATTAATTAAAATGCTTA [GTGCAC_site9403],8.49 ± 0.23
15,TAAGAATACGAAAGGTGTACACTGTGGAGACTTCAA [XGTACX_site2619],9.06 ± 0.43
16,ATAATTAAATAAAAAAGTACACATACATCATAATGC [XGTACX_site7656],8.84 ± 0.29
17,CAATTAAAAAATAATACATGCATATAAATAGATATT [TGCATGCA_site427],8.71 ± 0.38
18,TATGAAGTGCACAATACACACTAATTCTATATAAAT [CACACA_site7269],8.95 ± 0.3
